Measurements: PubChem BioAssay AID1346428 (National Center for Advancing Translational Sciences (NCATS), 2018)
Among all 48,000 compounds or so, about 1,200 (2.5%) were called active. Not shown: some 2% with an inconclusive outcome.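 How the source made its calls: active means activation of at least 60% and not above a set upper limit (about 1 call in 100 departs from these limits); inconclusive means activation of 40% to 60%, or above that upper limit; inactive means activation under 40%.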 Some of the results follow.

biological target: Probable G-protein coupled receptor 32 (Homo sapiens) (UniProt O75388); experiment: qHTS for Agonists of Human Resolvin D1 Receptor DRV1; conditions: CHO-K1 GPR32 beta-arrestin PathHunter luminescence, 90 min; at 76.9 µM; stronger effect = higher value; zero percent set by DMSO-only wells
Description: Endogenous resolution of inflammation is known to be transduced through various GPCRs and their natural mediators of lipid nature. Resolvin D1 (RvD1) is one of the active players in resolution of acute inflammation through regulation of anti-inflammatory pathways; it is known to enhance phagocytosis of human macrophages, limits neutrophils infiltration, etc. […] The search for GPR32-activating small molecules with anti-inflammatory effects similar to its natural omega-3 derivative ligand in order to use them as research tools for further studies of inflammation and its resolution was the goal of this screening project. For primary screening assay, we used CHO-K1 GPR32 beta-arrestin cell line (DiscoveRx, #93-0321C2A) and the PathHunter(R) beta-Arrestin Assay (DiscoveRx) which measures recruitment of beta-arrestin to the GPR32 and generates chemiluminescent signal. These engineered cells stably transfected with GPR32 co-express GPR32-fused small 42-amino acid fragment of beta-Gal called ProLinktrade mark, and […] -tagged beta-Arrestin fusion protein. When GPR32 is activated by a ligand, it stimulates binding of beta -Arrestin to ProLink-tagged GPR32, and two parts of beta-Gal complement forming a functional enzyme. Upon substrate (PathHunter(R) Detection reagent) addition, beta-Gal hydrolyzes it and generates a chemiluminescent signal.
The cells were thawed and plated in thawing media containing F-12 HAM (Invitrogen, #11765-054), 10% FBS (Invitrogen, #10082), 1x Glutamine, and 1x Pen/Strep onto the 175-mm flask for 24 hours. Then, thawing media was replaced with Growth media which contains 800microg/mL Geneticin (Invitrogen, #10131) and 300microg/mL Hygromycin B (Invitrogen, #10687) in addition to described above. For the assay, the cells were harvested at ~80% confluent stage with Cell Dissociation buffer (Gibco, #13151), and seeded at 2,500 cells/ 3microL/well in assay media (PathHunter(R) Cell Plating Reagent, DiscoverX, #93-0563R1B) using MultiDrop Combi dispenser (Thermo Scientific, Logan, UT) onto white solid bottom tissue culture-treated 1536-well plates (Greiner # 789173-F) and allowed to attach overnight at 37 degrees C, 95% humidity, 5% CO2, . Next, 23nL/well of compound solutions in DMSO were added with a Pin Tool (Kalypsis, San Diego, CA) to the assay plates. As the basal control (EC0), 23 nL/well of DMSO was used on each plate. The cells were incubated in the presence of compounds or DMSO for 90 minutes at 37 degrees C, 5% CO2. Subsequently, 1.5microL/well of PathHunter(R) Detection Reagent prepared per the manufacturer's instructions was added to the assay plates with BioRAPTR FRDtrade mark dispenser (Beckman Coulter, San Francisco, CA) and incubated for 1 hour at ambient temperature prior to the measurement of the luminescent signal on ViewLux(R) uHTS Microplate Imager (Perkin Elmer, Waltham, MA).

Chain of UniProt O75388 (O75388 whole entry, looked up): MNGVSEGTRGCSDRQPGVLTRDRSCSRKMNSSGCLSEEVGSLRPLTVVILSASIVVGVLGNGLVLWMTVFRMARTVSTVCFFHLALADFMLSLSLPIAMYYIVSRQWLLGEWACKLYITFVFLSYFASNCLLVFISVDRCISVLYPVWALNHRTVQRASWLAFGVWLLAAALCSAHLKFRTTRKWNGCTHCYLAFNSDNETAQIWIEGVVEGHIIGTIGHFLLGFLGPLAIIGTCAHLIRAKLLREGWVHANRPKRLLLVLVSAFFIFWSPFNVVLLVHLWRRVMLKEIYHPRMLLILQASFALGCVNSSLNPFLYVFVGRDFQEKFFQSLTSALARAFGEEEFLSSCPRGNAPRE

SMILES | activation
COc1cc(NC(=O)CCc2nc(-c3cccs3)no2)cc(OC)c1OC | inactive: 40.9%
Cc1ccc2c(=O)cc(C(=O)Nc3cccc(Cl)c3C)oc2c1C | inactive: -6.76%
CCCCCOC(=O)CSc1ncnc2c1sc1nc(N3CCOCC3)c3c(c12)CCCC3 | inactive: -5.45%
COc1ccc(OCCCCn2c(-c3ccc(Cl)cc3)nc3ccccc3c2=O)cc1 | inactive: -4.52%
Cn1c(=O)c2c(-c3ccccc3Cl)n(-c3cc(Cl)ccc3O)cc2n(C)c1=O | inactive: -12.2%
Cc1ccc(C(=O)CC2(O)C(=O)N(CCc3ccccc3)c3ccc(Cl)cc32)cc1 (centres undefined) | inactive: 16.2%
Cc1cc(Nc2cccc(C)c2C)n2cnnc2n1 | inactive: -3.38%
COCCn1ccc2c(OCC(=O)Nc3cccc(OC)c3)cccc2c1=O | active: 72.7%
COc1ccc(Nc2ncc(C(=O)N3CCN(c4cccc(Cl)c4)CC3)c3ccccc23)cc1 | inactive: 37.6%
Cc1ccc(C)c(-n2c(CCC(=O)O)ccc2-c2ccc(Cl)cc2)c1 | inactive: -6.15%
Cc1cccc(NC(=O)CSc2nc(-c3ccccc3)cn2-c2ccccc2)c1C | inactive: -22.6%
CC(C)CC(C(=O)NCc1ccc(F)cc1)N1Cc2ccccc2C1=O (centres undefined) | inactive: -13.6%
CCOc1ccc(-c2nc(SCC(=O)Nc3ccc(C)c(C)c3)n3[nH]c(=O)cc3n2)cc1 | inactive: 8.39%
Cc1ccc(C(C)C)c(OCC(=O)Nc2ccc(C(=O)OC3CCCCC3)cc2)c1 | inactive: -6.9%
CCc1ccc2ncc3c(-c4ccc(F)cc4)nn(CC(=O)NCc4ccccc4)c3c2c1 | inactive: 2.73%
Cc1nc(C)c(-c2ccc(SCC(=O)Nc3ccc(C)c(F)c3)nn2)s1 | inactive: 40.9%
COc1ccc(CNC(=O)c2c(O)nc3cc(C)ccn3c2=O)cc1 | inactive: -0.399%
Cc1ccc(/C=C/c2onc(C)c2S(=O)(=O)N2CCC(C(=O)NCc3ccc(C)o3)CC2)cc1 | inactive: -20%
CCc1nnc(SCc2nc(-c3ccc(OC)c(OC)c3)oc2C)c2cc3sc(C)cc3n12 | inactive: -8.02%
COc1cccc(CNC(=O)Cc2ccc(NC(=O)N3CCCCc4ccccc43)cc2)c1OC | inactive: 13.5%
CC(=O)N1CCc2c(sc3c2c(=O)n(-c2ccccc2)c(=O)n3CC(=O)Nc2ccccc2C)C1 | inactive: -10.8%
CCOc1ccc(NS(=O)(=O)c2ccc3[nH]cc(C(=O)N(C)Cc4ccccc4)c(=O)c3c2)cc1 | inactive: -10.7%
COc1ccc2c(c1)CC(NC(=O)Nc1c(C)cc(C)cc1C)CO2 (centres undefined) | inactive: -6.51%
Cc1ccccc1S(=O)(=O)Cc1ccc(C(=O)NC2CCCCC2)o1 | inactive: 16.2%
COc1ccc(NC(=O)c2oc3ccccc3c2NC(=O)c2cc3ccccc3o2)cc1 | inactive: 45.3%
CCOc1ccc(NC(=O)CSc2nnc3scc(-c4ccc(Cl)cc4)n23)cc1 | inactive: 15.9%
CCOc1cccc2cc(-c3nc4ccc(C(=O)O)cc4[nH]3)c(=O)oc12 | inactive: -0.717%

SMILES | activation
Cc1cccc(-n2c3nc(=O)[nH]c(=O)c-3cc3c(Cl)cccc32)c1C | inactive: 25%
COc1cc2oc(=O)c(CC(=O)N3CCCCC3)c(C)c2cc1Cl | inactive: 2.02%
COc1ccc(C)cc1S(=O)(=O)N1CCN(c2cccc(Cl)c2)CC1 | inactive: -8.6%
CCOC(=O)c1ccc2oc(=O)n(Cc3ccccc3)c2c1 | inactive: -14%
CC(=O)Nc1ccc(C2Sc3ccccc3NC3=C2C(=O)c2ccccc23)cc1 (centres undefined) | inactive: -56.2%
O=C(NCC(c1ccco1)S(=O)(=O)c1cccs1)c1ccc(F)cc1 (centres undefined) | inactive: -8.81%
Cc1ccc(C)c(CN2C(=O)c3ccccc3S(=O)(=O)c3ccc(C(=O)N4CCCCCC4)cc32)c1 | inactive: -16.2%
Cc1cc(C)c(NC(=O)c2cc3sc(Cl)cc3n2C)c(C)c1 | inactive: -9.39%
COc1ccccc1CNC(=O)c1ccc(N2CCCC2)c(NC(=O)NCCC(C)C)c1 | inactive: -24.2%
O=C(COc1ccc(F)cc1)Nc1ccc2nc(SCC(=O)N3CCc4ccccc43)sc2c1 | inactive: -6.36%
COc1cccc(NC(=O)CSc2ncc(S(=O)(=O)c3ccc(C)c(C)c3)c(=O)[nH]2)c1 | inactive: 9.69%
Cc1oc2ncn(CC(C)C)c(=O)c2c1C(=O)NCCCN1CCCCC1 | inactive: -3.44%
Cc1ccccc1OCC(=O)OCc1cc(=O)n2nc(C3CCCCC3)sc2n1 | inactive: -12%
CC(=O)c1ccc(N2CCN(S(=O)(=O)c3ccc(-c4cc(C(F)(F)F)on4)s3)CC2)cc1 | inactive: -0.311%
CSc1cccc(NC(=O)Cn2c3ncccc3c(=O)n2-c2ccc(C)cc2)c1 | inactive: -12.7%
Cc1csc2nc(COc3ccccc3NC(=O)c3ccco3)cc(=O)n12 | inactive: 2.18%
CCc1c(-c2ccccc2)nc2ccccc2c1C(=O)NCCc1ccccc1 | inactive: -24.9%
Nc1nc(OCc2ccccc2)c2[nH]cnc2n1 | inactive: 13.1%
Cc1ccc(-n2nnnc2CNC(=O)c2ccccc2S(C)(=O)=O)cc1C | inactive: 1.94%
COc1ccc(-c2cn3nc(N4CCCC(C(=O)Nc5ccc(C)c(C)c5)C4)sc3n2)cc1 (centres undefined) | inactive: -14.5%
FC(F)(F)c1cc(-c2ccccc2)nc2cc(-c3ccc(Br)cc3)nn12 | inactive: 43.2%
O=C(CCC(=O)OCC(=O)c1ccc(Cl)cc1)Nc1ccc(Oc2ccccc2)cc1 | inactive: -41%
COC(=O)c1c(SCC(=O)Nc2cc(C)cc(C)c2)[nH]c2ccccc2c1=O | inactive: 42.1%
CCc1ccc2occ(CC(=O)Nc3c(C(=O)Nc4ccc(C)cc4)oc4ccccc34)c2c1 | inactive: 1.67%
Cc1ccc(C(=O)n2nc(C)c(S(=O)(=O)N3CCOCC3)c2C)cc1 | inactive: 2.63%
COc1cccc(-c2nn(C)c3sc(C(=O)NCCc4ccc(Cl)cc4)cc23)c1 | inactive: -0.636%
Cc1cc(S(=O)(=O)Nc2ccc(-c3ccc(N4CCCCC4)nn3)cc2)c(C)cc1Cl | inactive: -0.403%
